Test results reported in the supplement of paper PMC4604168 (melanoma cell lines).
The list shows a part of the results. Most values come without repeats; read them as rough.

Experiments:
Assay in all cases: cell count relative to DMSO control; melanoma cells; higher = more viable cells
Conditions in all cases: library dose: standard library concentration; 72 h
G361 = test system: G361
IPC-298 = test system: IPC-298
IST-MEL1 = test system: IST-MEL1
LB2518-MEL = test system: LB2518-MEL
LOXIMVI = test system: LOXIMVI
MEL-HO = test system: MEL-HO
MZ2-MEL = test system: MZ2-MEL
MeWo = test system: MeWo
RPMI7951 = test system: RPMI7951
RVH-421 = test system: RVH-421
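Note: cells treated in 1,536-well plates, then fixed and DAPI-stained, with nuclei counted from automated high-throughput microscope images.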

SMILES | cell count (G361) [%] | cell count (IPC-298) [%] | cell count (IST-MEL1) [%] | cell count (LB2518-MEL) [%] | cell count (LOXIMVI) [%] | cell count (MEL-HO) [%] | cell count (MZ2-MEL) [%] | cell count (MeWo) [%] | cell count (RPMI7951) [%] | cell count (RVH-421) [%]
Cc1cc(Nc2cc(N3CCN(C)CC3)nc(Sc3ccc(NC(=O)C4CC4)cc3)n2)n[nH]1 [Tozasertib] + COc1ccc2c(c1)CCC1C2CCC2(C)C(NCCCCCCN3C(=O)C=CC3=O)CCC12 [U73122] (first compound 0.03 µM, partner dose 2 µM) | 82.7 | 99.7 | 98.2 | 93.6 | 84.6 | 92.9 | 128 | 62.4 | 52.3 | 76.4
CC[C@]1(O)C[C@H]2CN(CCc3c([nH]c4ccccc34)[C@@](C(=O)OC)(c3cc4c(cc3OC)N(C=O)[C@H]3[C@@](O)(C(=O)OC)[C@H](OC(C)=O)[C@]5(CC)C=CCN6CC[C@]43[C@@H]65)C2)C1 [vincristine] + Nc1ncn([C@H]2C[C@H](O)[C@@H](CO)O2)c(=O)n1 [decitabine] (first compound 0.0005 µM, partner dose 0.5 µM) | 67.1 | 50.9 | 65.5 | 77.6 | 78.2 | 63.3 | 57.2 | 70 | 60.5 | 70.1
Cc1cc(Nc2cc(N3CCN(C)CC3)nc(Sc3ccc(NC(=O)C4CC4)cc3)n2)n[nH]1 [Tozasertib] + O=C(CCCCCCC(=O)Nc1ccccc1)NO [vorinostat] (first compound 0.03 µM, partner dose 0.4 µM) | 62.2 | 76.2 | 74.2 | 57.9 | 68.5 | 72.4 | 67.6 | 72.8 | 56 | 91.6
CC[C@]1(O)C[C@H]2CN(CCc3c([nH]c4ccccc34)[C@@](C(=O)OC)(c3cc4c(cc3OC)N(C=O)[C@H]3[C@@](O)(C(=O)OC)[C@H](OC(C)=O)[C@]5(CC)C=CCN6CC[C@]43[C@@H]65)C2)C1 [vincristine] + Cn1cncc1[C@@](N)(c1ccc(Cl)cc1)c1ccc2c(c1)c(-c1cccc(Cl)c1)cc(=O)n2C [tipifarnib] (first compound 0.0005 µM, partner dose 0.05 µM) | 56 | 105 | 68.7 | 55.3 | 55 | 82 | 54 | 37 | 41.2 | 60.6
CC[C@]1(O)C[C@H]2CN(CCc3c([nH]c4ccccc34)[C@@](C(=O)OC)(c3cc4c(cc3OC)N(C=O)[C@H]3[C@@](O)(C(=O)OC)[C@H](OC(C)=O)[C@]5(CC)C=CCN6CC[C@]43[C@@H]65)C2)C1 [vincristine] + Cn1sc(=O)n(Cc2ccccc2)c1=O [TDZD-8] (first compound 0.0005 µM, partner dose 2 µM) | 90.5 | 94.8 | 101 | 101 | 64.8 | 105 | 94.2 | 92.1 | 50.5 | 60.1
CC[C@]1(O)C[C@H]2CN(CCc3c([nH]c4ccccc34)[C@@](C(=O)OC)(c3cc4c(cc3OC)N(C=O)[C@H]3[C@@](O)(C(=O)OC)[C@H](OC(C)=O)[C@]5(CC)C=CCN6CC[C@]43[C@@H]65)C2)C1 [vincristine] + N#Cc1c(O)c2c(-c3ccc(-c4ccccc4O)cc3)csc2[nH]c1=O [A769662] (first compound 0.0005 µM, partner dose 10 µM) | 56.3 | 95.5 | 44.5 | 71.3 | 56.3 | 73.5 | 46 | 37.5 | 24.3 | 38.2
Cc1cc(Nc2cc(N3CCN(C)CC3)nc(Sc3ccc(NC(=O)C4CC4)cc3)n2)n[nH]1 [Tozasertib] + COC(=O)c1sccc1S(=O)(=O)Nc1ccc(Nc2ccccc2)cc1OC [GSK0660] (first compound 0.03 µM, partner dose 5 µM) | 71.8 | 77.7 | 90.5 | 70.4 | 102 | 89 | 57.1 | 73.7 | 61.6 | 74.1
N#CC[C@H](C1CCCC1)n1cc(-c2ncnc3[nH]ccc23)cn1 [ruxolitinib] + C=CCNC1=C2C[C@@H](C)C[C@H](OC)[C@H](O)[C@@H](C)/C=C(\C)[C@H](OC(N)=O)[C@@H](OC)/C=C\C=C(/C)C(=O)NC(=CC1=O)C2=O [Tanespimycin] (first compound 5 µM, partner dose 0.01 µM) | 48.7 | 92.3 | 52.8 | 94.5 | 130 | 76.1 | 109 | 74.1 | 14.7 | 80.5
CC[C@]1(O)C[C@H]2CN(CCc3c([nH]c4ccccc34)[C@@](C(=O)OC)(c3cc4c(cc3OC)N(C=O)[C@H]3[C@@](O)(C(=O)OC)[C@H](OC(C)=O)[C@]5(CC)C=CCN6CC[C@]43[C@@H]65)C2)C1 [vincristine] + C=CCn1c(=O)c2cnc(Nc3ccc(N4CCN(C)CC4)cc3)nc2n1-c1cccc(C(C)(C)O)n1 [MK1775] (first compound 0.0005 µM, partner dose 0.1 µM) | 58.9 | 64.3 | 50.5 | 38.5 | 52 | 79.7 | 52.2 | 40.9 | 19.4 | 55.8
Cc1cc(Nc2cc(N3CCN(C)CC3)nc(Sc3ccc(NC(=O)C4CC4)cc3)n2)n[nH]1 [Tozasertib] + Cc1cn(-c2cc(NC(=O)c3ccc(C)c(Nc4nccc(-c5cccnc5)n4)c3)cc(C(F)(F)F)c2)cn1 [nilotinib] (first compound 0.03 µM, partner dose 1 µM) | 75.4 | 95.3 | 88.4 | 71.4 | 96.7 | 89 | 69.2 | 82.9 | 95.6 | 83.6
Cc1cc(Nc2cc(N3CCN(C)CC3)nc(Sc3ccc(NC(=O)C4CC4)cc3)n2)n[nH]1 [Tozasertib] + c1cc(-c2cnn3cc(-c4ccc(OCCN5CCCCC5)cc4)cnc23)ccn1 [Dorsomorphin] (first compound 0.03 µM, partner dose 2 µM) | 53.7 | 71.6 | 88 | 57.3 | 94.1 | 75.5 | 59.9 | 58.6 | 63.4 | 79.7
CC[C@]1(O)C[C@H]2CN(CCc3c([nH]c4ccccc34)[C@@](C(=O)OC)(c3cc4c(cc3OC)N(C=O)[C@H]3[C@@](O)(C(=O)OC)[C@H](OC(C)=O)[C@]5(CC)C=CCN6CC[C@]43[C@@H]65)C2)C1 [vincristine] + O=C(O)C(=O)Nc1sc2c(c1C(=O)O)CCNC2 [TCS401] (first compound 0.0005 µM, partner dose 8.33333 µM) | 49.3 | 78.5 | 63.3 | 62.2 | 49.5 | 71 | 37.8 | 28.1 | 24.9 | 122
Cc1cc(Nc2cc(N3CCN(C)CC3)nc(Sc3ccc(NC(=O)C4CC4)cc3)n2)n[nH]1 [Tozasertib] + Cn1nnc2c(C(N)=O)ncn2c1=O [temozolomide] (first compound 0.03 µM, partner dose 10 µM) | 84.5 | 78.4 | 65.6 | 81.1 | 84 | 86.3 | 69 | 70.7 | 89.4 | 84.9
CC[C@]1(O)C[C@H]2CN(CCc3c([nH]c4ccccc34)[C@@](C(=O)OC)(c3cc4c(cc3OC)N(C=O)[C@H]3[C@@](O)(C(=O)OC)[C@H](OC(C)=O)[C@]5(CC)C=CCN6CC[C@]43[C@@H]65)C2)C1 [vincristine] + CN(NC(=O)CC(=O)NN(C)C(=S)c1ccccc1)C(=S)c1ccccc1 [STA4783] (first compound 0.0005 µM, partner dose 0.03 µM) | 54.4 | 85.4 | 30.4 | 21.4 | 57.9 | 85.8 | 105 | 14.3 | 42.4 | 56.9
CC[C@]1(O)C[C@H]2CN(CCc3c([nH]c4ccccc34)[C@@](C(=O)OC)(c3cc4c(cc3OC)N(C=O)[C@H]3[C@@](O)(C(=O)OC)[C@H](OC(C)=O)[C@]5(CC)C=CCN6CC[C@]43[C@@H]65)C2)C1 [vincristine] + O=C(/C=C/c1cccnc1)NCCCCC1CCN(C(=O)c2ccccc2)CC1 [FK866] (first compound 0.0005 µM, partner dose 0.05 µM) | 6.17 | 30.7 | 60.6 | 74.3 | 65.1 | 46.7 | 33.4 | 101 | 75.9 | 37.8
N#CC[C@H](C1CCCC1)n1cc(-c2ncnc3[nH]ccc23)cn1 [ruxolitinib] + Nc1nc(F)nc2c1ncn2[C@@H]1O[C@H](CO)[C@@H](O)[C@@H]1O [fludarabine] (first compound 5 µM, partner dose 1 µM) | 61.7 | 62.7 | 78.1 | 88.6 | 64.7 | 56.5 | 82.7 | 67.4 | 56.1 | 78.3
CC[C@]1(O)C[C@H]2CN(CCc3c([nH]c4ccccc34)[C@@](C(=O)OC)(c3cc4c(cc3OC)N(C=O)[C@H]3[C@@](O)(C(=O)OC)[C@H](OC(C)=O)[C@]5(CC)C=CCN6CC[C@]43[C@@H]65)C2)C1 [vincristine] + NCC(=O)Nc1ccc(-n2nc(C(F)(F)F)cc2-c2ccc3c(ccc4ccccc43)c2)cc1 [OSU03012] (first compound 0.0005 µM, partner dose 5 µM) | 62.9 | 63.8 | 76.7 | 91.6 | 73.1 | 76.2 | 90 | 105 | 119 | 80.8
CC[C@]1(O)C[C@H]2CN(CCc3c([nH]c4ccccc34)[C@@](C(=O)OC)(c3cc4c(cc3OC)N(C=O)[C@H]3[C@@](O)(C(=O)OC)[C@H](OC(C)=O)[C@]5(CC)C=CCN6CC[C@]43[C@@H]65)C2)C1 [vincristine] + CC1(C)NC(=O)N(c2ccc([N+](=O)[O-])c(C(F)(F)F)c2)C1=O [nilutamide] (first compound 0.0005 µM, partner dose 5 µM) | 82.8 | 106 | 75.9 | 99.9 | 67.8 | 91.2 | 105 | 41.8 | 47.1 | 77.9
